# Source: PMC6212790
# This is one part of the list. At the low end of the ranking the order means little.
# Target: T1, GST-Rok (full length) (UniProt O34857)
# T1 sequence: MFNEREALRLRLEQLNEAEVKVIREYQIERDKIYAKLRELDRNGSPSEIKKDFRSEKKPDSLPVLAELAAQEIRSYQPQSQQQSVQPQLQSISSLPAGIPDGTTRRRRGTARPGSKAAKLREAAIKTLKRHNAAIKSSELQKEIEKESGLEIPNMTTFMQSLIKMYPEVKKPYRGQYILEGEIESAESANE
# Assay: protein binding microarray;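 note: rank score from −0.5 (least bound) to 0.5 (best bound)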
# Settings: Rok is a gene silencer of Bacillus subtilis; high values mean tight binding; most listed sequences are background and not binding sites; double strand, one strand shown
row,Sequence,binding signal [E-score]
1,ACCGGGCG,-0.248
2,TGGCATAA,-0.09
3,CTCGCTCC,-0.273
4,ATCCCGAT,0.165
5,ATGTATCA,0.324
6,ATTAACGA,0.134
7,CAGTAATG,0.0273
8,TCCCCACA,-0.371
9,GTCTCTAA,-0.0327
10,CATTCTCG,-0.0568
11,CCAATCCG,-0.0703
12,AGGCATGC,-0.113
13,CGCGGAGC,-0.204
14,CATTATAG,0.255
15,AATGAAAG,0.0476
16,CTCCGGCC,-0.246
17,ATACGGCA,0.117
18,GTTCAAGA,-0.135
19,CCTAACTA,0.26
20,ATCTCATC,0.121
21,GTCCAGAC,-0.238
22,AAGGCTCT,-0.163
23,AGTGAATG,0.0707
24,ATTACTTG,0.111
25,AGAGTCCC,-0.313

row,Sequence,binding signal [E-score]
1,CATAAGAG,0.0713
2,GGGCCTAA,-0.307
3,CCAGAGTC,-0.189
4,GAATACAC,0.0158
5,TAATAACA,0.238
6,CTTGCAAC,0.0294
7,CGGTAGGA,0.281
8,ATACTAAA,0.391
9,AGTTCCTG,0.11
10,ATATATGC,0.338
11,CTCTTACC,-0.0316
12,ACGCAGAT,0.0458
13,GACCCGGA,-0.15
14,ACTACGCT,0.0979
15,GTGGAAGA,-0.0706
16,ACATTATC,0.313
17,GCGGCCCC,-0.464
18,GCTGGGCA,-0.247
19,ATTTTGGG,-0.0778
20,GGCGCCCC,-0.347
21,AGGTTTAT,0.0678
22,TAGGCACA,0.0555
23,AATTCCGC,0.128
24,ATACTGAC,0.102
25,GAGCAGGC,-0.25

row,Sequence,binding signal [E-score]
1,ACCGCCTC,-0.305
2,GACTCACA,-0.0949
3,GCCTCCCC,-0.354
4,AACGTACA,0.155
5,CAATGCTG,-0.141
6,CCCTTGTC,-0.297
7,AATAAAGT,0.0461
8,CAAAAGTG,-0.165
9,CATCCCAG,-0.0784
10,ACTCGCCC,-0.0753
11,CGGTAGTA,0.342
12,AGGCTTGG,-0.264
13,TAGAAGAA,0.109
14,ACGACTGC,-0.0458
15,CTTCCGCC,-0.247
16,GCGATGTA,0.042
17,AGGGGACA,-0.318
18,AACTAATG,0.339
19,ACCCACAC,0.0119
20,CGGGACTA,-0.0393
21,GTGTTCTA,0.289
22,GCTCCAGA,-0.29
23,CGGTGATC,-0.0519
24,AGACGGAT,-0.164
25,CTCTCACA,-0.156

row,Sequence,binding signal [E-score]
1,GGGACAAA,-0.151
2,ACTCTCCA,-0.0297
3,ATACACGG,0.0962
4,ATAGTGAG,0.262
5,AGGGCGAC,-0.222
6,CGCGCTTC,0.093
7,TAATTACA,0.335
8,GTACGGTA,0.232
9,ACTTCTCG,0.0799
10,GAGTCCTA,-0.0464
11,CTCAAGGC,-0.321
12,GGTTCTAC,0.0507
13,AACGACAG,0.0268
14,GATCAACC,-0.176
15,ATTCTGAA,0.137
16,GCCACAAA,-0.162
17,GATTATAC,0.217
18,GGACCCCA,-0.382
19,CATGGTCG,0.000741
20,GCCCGGCC,-0.442
21,ACCACACA,0.00655
22,ATCCTTAC,0.0577
23,ACATATCC,0.179
24,GATTGTAA,0.0122
25,ATGGCGCG,-0.0369

row,Sequence,binding signal [E-score]
1,GGATGCAC,-0.16
2,ACTTGCCA,0.142
3,ACGTCCAT,-0.216
4,ACCTAGTC,0.123
5,AATTTAAA,0.111
6,GGAGAGCA,-0.299
7,CTCCTGAA,-0.152
8,ACGCCCGA,0.0062
9,CACTGAGA,-0.00974
10,CCAATAAA,0.204
11,AACGTCTA,-0.0148
12,GCTACATA,0.31
13,GTGTTACA,0.0743
14,GCATCCGA,-0.183
15,GATCCCCC,-0.395
16,CATTTAAG,0.0548
17,CACATTAC,0.139
18,ACAGAAGA,0.0217
19,CTGAAGTC,0.132
20,GCAACGCC,-0.0716
21,GGAAAGCA,-0.232
22,CAAATTCA,0.131
23,AAATCAGT,0.143
24,CGGGTGGA,-0.162
25,ACAAAGAA,0.00411

row,Sequence,binding signal [E-score]
1,CCCTCCAG,-0.295
2,ACTATGAA,0.214
3,CGAGATTC,0.0851
4,CGAGTAAC,0.156
5,TCGGTCAA,-0.0184
6,ATTCAGTA,0.23
7,AACACGGG,0.000601
8,CAAGGGGG,-0.305
9,TCGAGCCA,-0.116
10,CGCTGGTA,0.0821
11,CCCATTGC,-0.205
12,AATAAGGT,0.133
13,AAACTTCC,-0.212
14,CCGGCGAA,-0.00971
15,CGAACCTA,0.128
16,CGAACTGC,-0.11
17,ATACGGAT,0.223
18,GACGAAAC,0.0677
19,AATGGCTA,-0.0683
20,ACCGGGTC,-0.107
21,GCAACATA,0.167
22,CCCCTAAA,-0.272
23,GGTGACGA,-0.186
24,ACCCCGTC,-0.371
25,ACTGACCT,0.14

row,Sequence,binding signal [E-score]
1,CAGCACTC,-0.226
2,AATAGGAC,-0.0353
3,GGCAGCGA,-0.0636
4,AGACTACC,0.249
5,GACACCTA,-0.11
6,AGCACCCC,-0.287
7,AATGATGC,0.0194
8,ACAGTGAT,0.0634
9,AAGGACGA,-0.157
10,AGGTCCGA,-0.0739
11,GAAACATC,0.0397
12,GGTCTGAC,-0.331
13,ACAAGAAA,-0.0731
14,TGGAACCA,-0.177
15,AGAAGATG,0.193
16,AGCGGGGG,-0.353
17,ACTTGATG,-0.00809
18,CTAGCTAG,0.327
19,AGAGAGTC,-0.223
20,TAGATTAA,0.226
21,AGAGGGGA,-0.324
22,AGTACAGA,0.0801
23,ATAAAGTG,-0.05
24,ACTTTGAT,0.151
25,GACACCAC,0.0479

row,Sequence,binding signal [E-score]
1,CGTAAATA,0.343
2,CCTGCTCG,-0.399
3,CAAAGTCG,0.0362
4,ACATATCA,0.22
5,GCAGCTCA,-0.239
6,CACACACG,-0.145
7,CCTTCACC,-0.226
8,ACCGTTGC,0.141
9,ATCCGTCA,-0.022
10,CTCCGGCA,-0.256
11,TAACTATA,0.341
12,CTCTAATA,0.047
13,CTCCGATC,-0.137
14,CCATCAAC,-0.0712
15,GGCAAGGA,-0.229
16,CTCGGGTC,-0.297
17,AGCAACCG,-0.101
18,AGTAATGC,0.0808
19,TGTCCTAA,-0.00549
20,TAGGTCCA,-0.0528
21,CGAGTAGC,-0.0915
22,ACCGGCCA,-0.252
23,AAAGCGCG,-0.0748
24,GAGATGAA,-0.185
25,ATCCCATA,0.0754

row,Sequence,binding signal [E-score]
1,CCCCTGGA,-0.338
2,CACCATGA,-0.192
3,AGATTCAC,0.235
4,CCCTTCGC,-0.278
5,AAATCGCA,0.115
6,GGGCTGAA,-0.297
7,AGTTAGAT,0.162
8,GTTTGAAA,0.00281
9,AACGTCAA,0.107
10,ATCCCTAC,-0.0161
11,GTGTTGCA,0.0637
12,GCCGTTGA,-0.169
13,ACGGGAAT,0.0857
14,CGTGTGAA,0.0388
15,AGGGCAGG,-0.304
16,GCAAAGTA,0.173
17,GGAGCTAC,0.0887
18,AAAAGAAA,-0.0875
19,ACGCCGAA,-0.18
